Test results: the RNAGym collection of RNA variant scans (doi:10.7554/elife.90254)
The source gives no read counts; variants with many changes may rest on few reads.

B1: OR4K15 (parent)
chain: GUUAACGGUCAUAGGCCAUGGAAACUAGGAGCACCAUUUCGCUGCCAGUGAAGAAAUGAACAAAGAAAAUCUGGGCCAGGCAGGCAUCAAAAGAAAUAGUCUUGCGCUCAACCAGAAAGUCUGUAAUCAUUUUAAGGGUA

Variants of: B1
Assay: self-cleavage, relative activity (ratio to wild type); higher = more cleavage; in vitro, sequencing; the parent is a self-cleaving ribozyme

Variant | self-cleavage
GUUAACGGUCAUAGGCCAUGGAAACUAGGAGCACCAUUUCGCUGCCAGUGAAGUAAUGAACGAAGAAAAUCUGGGCCAGGCAGGCACCAAAAGAAAUAGUCUUGCGCUCAACCAGAAAGUCUGUAAUCAUCUUAAGGGUA [A54U A62G U87C U131C] | 1.34
GUUAACGGUCAUAGGCCAUGGAAACUAGGAGCACCAUUUCGCUGCCAGUGAAGUAAUGAACUAAGAAAAUCCGGGCCAGGCAGGCAUCAAAAGAAAUAGUCUUGCGCUCAACCAGAAAGUCUGUAAUCAUUUUAAGGGUA [A54U A62U U72C] | 0.26
GUUAACGGUCAUAGGCCAUGGAAACUAGGAGCACCAUUUCGCUGCCAGUGAAGUAAUGAACAGAGAAAAUCUGGGCCAGGCAGGCAUCAAAAGAAAUAGUCUUGCGCUCAACCAGAAAGUCUGUAAUCAUUUUACGGGUA [A54U A63G A135C] | 2.34
GUUAACGGUCAUAGGCCAUGGAAACUAGGAGCACCAUUUCGCUGCCAGUGAAGUAAUGAACAAAGGAAACCUGGGCCAGGCAGGCAUCAAAAGAAAUAGUCUUGCGCUCAACCAGAAUGUCUGUAAACAUUUUAAGGGUA [A54U A66G U70C A118U U127A] | 0.09
GUUAACGGUCAUAGGCCAUGGAAACUAGGAGCACCAUUUCGCUGCCAGUGAAGUAAUGAACAAAGUAAAUCUGGGCCAGGCAGGCAUCAAAAGAAGUAGUCUUGCGCUCAACCAGAAAGUCUGUAAUCAUUUUAAGGGUA [A54U A66U A96G] | 1.74
GUUAACGGUCAUAGGCCAUGGAAACUAGGAGCACCAUUUCGCUGCCAGUGAAGUAAUGAACAAAGAAGAUCUGGGCCAGGCGGGCAUCAAAAGAAAUAGUCUUGCGCUCAACCAGAAAGUCUGUAAUCGUUUUAAGGGUA [A54U A68G A82G A129G] | 0.45
GUUAACGGUCAUAGGCCAUGGAAACUAGGAGCACCAUUUCGCUGCCAGUGAAGUAAUGAACAAAGAAUAUCUGGGCCAGGCAGGCACCAAAAGAAAUAGUCUUGCGCUCAACCAGAAAGUCUGUAAUCAUUUUAGGGGUA [A54U A68U U87C A135G] | 1.25
GUUAACGGUCAUAGGCCAUGGAAACUAGGAGCACCAUUUCGCUGCCAGUGAAGUAAUGAACAAAGAAAUUCUGGGCCAGGCAGGCAUCAAAAGAAGUAGUCUUGCGCUCAACCAGAAAGUCUGUAAUCAUUUUAAGGGUA [A54U A69U A96G] | 2.01
GUUAACGGUCAUAGGCCAUGGAAACUAGGAGCACCAUUUCGCUGCCAGUGAAGUAAUGAACAAAGAAAAUCUGGGCCAGGCGGGCAUCAAAAGAAAUAGUCUUGCGCUCAGCCAGAAAGUCUGUAAUCAUUUUAAGGGUA [A54U A82G A111G] | 0.06
GUUAACGGUCAUAGGCCAUGGAAACUAGGAGCACCAUUUCGCUGCCAGUGAAGUAAUGAACAAAGAAAAUCUGGGCCAGGCAGGCGUCGAAAGAAGUAGUCUUGCGCUCAACCAGAAAGUCAGUAAUCAUUUUAAGGGUA [A54U A86G A89G A96G U122A] | 2.16
GUUAACGGUCAUAGGCCAUGGAAACUAGGAGCACCAUUUCGCUGCCAGUGAAGUAAUGAACAAAGAAAAUCUGGGCCAGGCAGGCAUCAGAAGAAAUAGUCUUGCGCUCAACCGGAAAGUCUGUAAUCAUUUUAAGGGUA [A54U A90G A114G] | 0.25
GUUAACGGUCAUAGGCCAUGGAAACUAGGAGCACCAUUUCGCUGCCAGUGAAGUAAUGAACAAAGAAAAUCUGGGCCAGGCAGGCAUCAAAAGAGAUAGUCUUGCGCUCAACCCGAAAGUCUAUAAUCAUUUUAAGGGUA [A54U A95G A114C G123A] | 0.07
GUUAACGGUCAUAGGCCAUGGAAACUAGGAGCACCAUUUCGCUGCCAGUGAAGUAAUGAACAAAGAAAAUCUGGGCCAGGCAGGCAUCAAAAGAAAUAGUCUUGCGCUCAGCCAGAAAGUCCGUAACCAUUUUAAGGGUA [A54U A111G U122C U127C] | 0
GUUAACGGUCAUAGGCCAUGGAAACUAGGAGCACCAUUUCGCUGCCAGUGAAGUAAUGAACAAAGAAAAUAUGGGCCCGGCAGGCAUCAAAAGAAAUAGUCUUGCGCUCAACCAGAAAGUCUGUAAUCAUUUUAAGGGUA [A54U C71A A78C] | 0.15
GUUAACGGUCAUAGGCCAUGGAAACUAGGAGCACCAUUUCGCUGCCAGUGAAGUAAUGAACAAAGAAAAUCUGGGCCAGGCAGGCAUCAAAAGAAAUAGUCUUGCGCUUAACCAGAAAGUCUGUGAUCAUUUUAAGGGUA [A54U C109U A125G] | 0.06
GUUAACGGUCAUAGGCCAUGGAAACUAGGAGCACCAUUUCGCUGCCAGUGAAGUAAUGAACAAAGAAAAUCAGGGCCAGGCAGGCAUCAAAAGAAAUAGUCUUGCGCUCAACCAGAAAGUCUGUAAUCAUUUUAAGGGUG [A54U U72A A140G] | 0.41
GUUAACGGUCAUAGGCCAUGGAAACUAGGAGCACCAUUUCGCUGCCAGUGAAGUAAUGAACAAAGAAAAUCUGGGCCAGGCAGGCAUCAAAAGAAAUAGCCUUGCGCUCAACCAGAAAGUCUGUAAUCGUUUUAAGGGUA [A54U U100C A129G] | 2.53
GUUAACGGUCAUAGGCCAUGGAAACUAGGAGCACCAUUUCGCUGCCAGUGAAGACAUGAGCAAAGAAGAUCUGGGCCAGGCAGGCAUCAGAAGAAAUAGUCUUGCGCCCAACCAGAAAGUCUGUAAUCAUUUUAAGGGUA [A55C A60G A68G A90G U108C] | 0.04
GUUAACGGUCAUAGGCCAUGGAAACUAGGAGCACCAUUUCGCUGCCAGUGAAGACAUGAACAAAGAAAAUCUGGGCCCGGCAGGCAUCAAAAGAAAUAGUCUUGCGCUCAACCAGAAAGACUGUAAUCAUUUUAAGUGUA [A55C A78C U120A G137U] | 0.19
GUUAACGGUCAUAGGCCAUGGAAACUAGGAGCACCAUUUCGCUGCCAGUGAAGACAUGAACAAAGAAAAUCUGGGCCAGGCAGGCAUCAAAAGAGAUAGUCUUGCGCUCAACCAGAAAGUCUGUAAUCAUUCUAAGGGUA [A55C A95G U132C] | 2.6
GUUAACGGUCAUAGGCCAUGGAAACUAGGAGCACCAUUUCGCUGCCAGUGAAGACACGAACAAAGAAAAUCUGGGUCAGGCAGGCAUCAAAAGAAAUAGUCUUGCGCUCAACCAGAAAGUCUGUAAUCAUUUUAAGGGUA [A55C U57C C76U] | 0.17

Variant | self-cleavage
GUUAACGGUCAUAGGCCAUGGAAACUAGGAGCACCAUUUCGCUGCCAGUGAAGAGCUGAACAAAGAAAAUCUGGGCCAGGCAGGCAUCAAAGGAAAUAGUCUAGCGCUCAACCAGAAAGUCUGUAAUCAUUUUAAGGGUA [A55G A56C A92G U103A] | 0.21
GUUAACGGUCAUAGGCCAUGGAAACUAGGAGCACCAUUUCGCUGCCAGUGAAGAGGUGAACAAAGAAAAUCUGGGCCAGGCAGGCAUCAAAAGAAAUAGUCUUGCGCUCAACCAGAAAGUCUGUAGUCACUUUAAGGGUA [A55G A56G A126G U130C] | 0.46
GUUAACGGUCAUAGGCCAUGGAAACUAGGAGCACCAUUUCGCUGCCAGUGAAGAGAUGGACAAAGAGAAUCUGGGACAGGCAGCCAUCAAAAGAAAUAGUCUUGCGCUCAGCCAGAGAGUCUGUAAUCAUUUUAAUGGUA [A55G A59G A67G C76A G84C A111G A117G G136U] | 0.01
GUUAACGGUCAUAGGCCAUGGAAACUAGGAGCACCAUUUCGCUGCCAGUGAAGAGAUGGACAAAGAAAAUCUGGGCCAGGCAGGCAUCAAAAGAAAUAGUCUUGCGCUCAACCAGAAAGUCCGUAAUCAUUUUAAGGGUA [A55G A59G U122C] | 0.6
GUUAACGGUCAUAGGCCAUGGAAACUAGGAGCACCAUUUCGCUGCCAGUGAAGAGAUGUGCAAAGAAAAUCUGGGCCAGGCAGGCAUCAAAAGAAAUAGUCUUGCGCUCAACCAGAAAGUCUGUAAUCAUUUUAAGGGUA [A55G A59U A60G] | 1.33
GUUAACGGUCAUAGGCCAUGGAAACUAGGAGCACCAUUUCGCUGCCAGUGAAGAGAUGUACAAAGAAAAUCUGGGCCAGGCAGGCAUCAAAAGAAAUAGUCUUGCGCUCAACCAGAAAGUCUGUAAUCAUUUUAAGGGUG [A55G A59U A140G] | 1.57
GUUAACGGUCAUAGGCCAUGGAAACUAGGAGCACCAUUUCGCUGCCAGUGAAGAGAUGAGCAAUGAAAAUCUGGGCCAGGCUGGCAUCAAAAGAAAUAGUCUUGCGCUCAACCAGAAAGUCUGUAAUCAUUUUAAGGGUA [A55G A60G A64U A82U] | 0.15
GUUAACGGUCAUAGGCCAUGGAAACUAGGAGCACCAUUUCGCUGCCAGUGAAGAGAUGAGCAAAGAGAACCUGGGCCAGGCAGGCAUCAAAAGAAAUAGUCUUGCGCUCAACCCGAAAGUCUGUAAUCAUUUUAAGGGUA [A55G A60G A67G U70C A114C] | 0.02
GUUAACGGUCAUAGGCCAUGGAAACUAGGAGCACCAUUUCGCUGCCAGUGAAGAGAUGAGCAAAGAAAAUCUGGGCCAGGCAGGCAUCAAAAGAAAUAGUCUUGCGCUCAACCAGAAAGUCUGUAAUCGUUUUAAGGGUA [A55G A60G A129G] | 0.63
GUUAACGGUCAUAGGCCAUGGAAACUAGGAGCACCAUUUCGCUGCCAGUGAAGAGAUGAGCAAAGAAAAUCUGGGCCAGGCAGGCACCAAAAGAAAUAGUCUUGCGCUCAACCAGAAAGUCUGUAAUCAUUUUAAGGGUA [A55G A60G U87C] | 0.46
GUUAACGGUCAUAGGCCAUGGAAACUAGGAGCACCAUUUCGCUGCCAGUGAAGAGAUGAUCAAAGAAAAUCUGGGCCAGGCAGGCAUCAAGAGAAAUGGUCUUGCGCUCAACCAGAAAGUCUGUAAUCAUUUUAAGGGUA [A55G A60U A91G A98G] | 0.32
GUUAACGGUCAUAGGCCAUGGAAACUAGGAGCACCAUUUCGCUGCCAGUGAAGAGAUGAACGAAGAAAAUCUGGGCCAGGCAGGCAUCAAAAGAAAUAGUCUUGCGCUCAACCAGCAAGUCUGUAAUCAUCUUAAGGGUA [A55G A62G A116C U131C] | 0.16
GUUAACGGUCAUAGGCCAUGGAAACUAGGAGCACCAUUUCGCUGCCAGUGAAGAGAUGAACGAAGAAAAUCUGGGCCAGGCAGGCAUCAAAAGAAAUAGUCUUGCGCUCAACCAGAAAGUCUGUAAGCUUCUUAAGGGUA [A55G A62G U127G A129U U131C] | 1.23
GUUAACGGUCAUAGGCCAUGGAAACUAGGAGCACCAUUUCGCUGCCAGUGAAGAGAUGAACGAAGAAAAUCUGGGCCAGGCAGGCAUCAAAAGAAAUAGUCUUGCGCUCAACCAGAAAGUCUGUAAUCAUUUUAAGGGCA [A55G A62G U139C] | 1.38
GUUAACGGUCAUAGGCCAUGGAAACUAGGAGCACCAUUUCGCUGCCAGUGAAGAGAUGAACUAGGAAAAUCUGGGCCAGGCAGGCAUCAAAAGAAAUAGUCUUGCGCUCAACCAGAAAGUCUGUAUUCAUUUUAAGGGUA [A55G A62U A64G A126U] | 1.42
GUUAACGGUCAUAGGCCAUGGAAACUAGGAGCACCAUUUCGCUGCCAGUGAAGAGAUGAACACAGAAAAUCUGGGCCAGGCAGGCAUCAAAAGAAAUAGUCUUGCGCUCAACCAGAAAGUCUGUAAUCACUUUAAGGGUA [A55G A63C U130C] | 1.33
GUUAACGGUCAUAGGCCAUGGAAACUAGGAGCACCAUUUCGCUGCCAGUGAAGAGAUGAACAGAGGAAAUCUGGGCCAGGCAGGCAUCAAAAGAAAAAGUCUUGCGCUCAACCAGAAAGCCUGUAAUCAUUUUAAGGGUA [A55G A63G A66G U97A U120C] | 1.68
GUUAACGGUCAUAGGCCAUGGAAACUAGGAGCACCAUUUCGCUGCCAGUGAAGAGAUGAACAGAGAAAAUCUGGGCCAGGCAGGCAUCAAAAGAAAUAGUCUUGGGCUCAACCAGAAGGUCUGUAAUCAUUUUAAGGGUA [A55G A63G C105G A118G] | 0.01
GUUAACGGUCAUAGGCCAUGGAAACUAGGAGCACCAUUUCGCUGCCAGUGAAGAGAUGAACAGAGAAAAUCUGUGCCAGGCAGGCAUCAAAAGAAAUAGUCUUGCGCUCAACCAGAAGGUCUGUAAUCAUUUUAAGGGUA [A55G A63G G74U A118G] | 0.09
GUUAACGGUCAUAGGCCAUGGAAACUAGGAGCACCAUUUCGCUGCCAGUGAAGAGAUGAACAACGAAAAUCUGGGCCAGGCGGGCAUCAAAAGAAAUAGUCUUGCGCUCAACCAGAAAGUCUGUAAUCAUUUUAAGGGUA [A55G A64C A82G] | 0.38
